# Experimental data from a collection of fitness landscapes (doi:10.1016/j.celrep.2020.107928).
# Whole data set: some 81,000 sequences, median “one-hybrid fitness for binding parS DNA” near -0.17, cut for the highest 2% near 0.51. Some of the results follow.
# B1: Caulobacter ParB omega fusion; a variant is named by its letters at X, in order, B8GW30 (parent)
# chain: MESVVVGEPGMSEGRRGLGRGLSALLGEVDAAPAQAPGEQLGGSREAPIEILQRNPDQPRRTFREEDLEDLSNSIREKGVLQPILVRPSPDTAGEYQIVAGERAWRAAQRAGLKTVPIMVRELDDLAVLEIGIIENVQRADLNVLEEALSYKVLMEKFERTQENIAQTIGKSXSHVANXMRLLXLPDEVQSYLVSGELTAXHARAIAAAADPVALAKQIIEGGLSVRETEALARKAPNLSAGKSKGGRPPRVKDTDTQALESDLSSVLGLDVSIDHRGSTGTLTITYATLEQLDDLCNRLTRGI
# Variants of: B1
# Assay: one-hybrid fitness for binding parS DNA (scaled: cognate 1, non-cognate 0); higher = stronger binding
# Conditions: with parS DNA site
# Procedure, shortened: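 On M9-minus-histidine containing 0.1 mM IPTG and 5 mM 3-AT, E. coli USO cells with a HIS3 reporter, site 19 bp from the promoter, grew 48 hours at 37°C to select Caulobacter ParB libraries randomised at four specificity codons. Plasmids from before and after were Illumina-sequenced, with three replicate libraries pooled and variants under 10 reads left out. Fitness is the log change in variant-to-wild-type read ratio, rescaled against cognate and non-cognate.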
row,Variant,one-hybrid fitness for binding parS DNA
1,IESC,≤ 0.2
2,NASL,≤ 0.2
3,QRNC,≤ 0.2
4,TKKC,≤ 0.2
5,APNM,≤ 0.2
6,ALNS,≤ 0.2
7,RRFD,≤ 0.2
8,QYRT,≤ 0.2
9,NDSS,≤ 0.2
10,THTF,≤ 0.2
11,PILP,≤ 0.2
12,REED,≤ 0.2
13,CCDL,≤ 0.2
14,TMLR,≤ 0.2
15,HDSV,≤ 0.2
16,GCWT,≤ 0.2
17,ARMS,≤ 0.2
18,IRMG,≤ 0.2
19,SFVY,≤ 0.2
20,HEVG,≤ 0.2
21,HMHG,≤ 0.2

row,Variant,one-hybrid fitness for binding parS DNA
1,KCIS,≤ 0.2
2,HHCC,≤ 0.2
3,RWTY,0.37
4,FTAS,≤ 0.2
5,RGPC,0.217
6,CMGS,≤ 0.2
7,HLVD,≤ 0.2
8,SQMA,≤ 0.2
9,PCPG,≤ 0.2
10,ICNG,≤ 0.2
11,KRWF,≤ 0.2
12,KKET,≤ 0.2
13,NPAD,≤ 0.2
14,KQSF,≤ 0.2
15,CSQE,≤ 0.2
16,LNQH,≤ 0.2
17,MSQQ,≤ 0.2
18,VSLQ,≤ 0.2
19,SSIC,≤ 0.2
20,EYDR,≤ 0.2
21,SLTP,≤ 0.2

row,Variant,one-hybrid fitness for binding parS DNA
1,SMPC,≤ 0.2
2,VGKC,≤ 0.2
3,YPGQ,≤ 0.2
4,IRKT,≤ 0.2
5,PRCY,≤ 0.2
6,AFEI,≤ 0.2
7,YQHT,≤ 0.2
8,KNNN,≤ 0.2
9,WCVG,≤ 0.2
10,YAHV,≤ 0.2
11,KPWT,≤ 0.2
12,WHFS,≤ 0.2
13,IYRA,≤ 0.2
14,CPTL,≤ 0.2
15,ILIR,≤ 0.2
16,RWVS,0.616
17,ITGA,≤ 0.2
18,ACIR,≤ 0.2
19,AYHC,≤ 0.2
20,PKSC,≤ 0.2
21,PIAD,≤ 0.2

row,Variant,one-hybrid fitness for binding parS DNA
1,QPVN,≤ 0.2
2,PSFS,≤ 0.2
3,QGFS,≤ 0.2
4,SWSY,≤ 0.2
5,NWWR,≤ 0.2
6,AYSK,≤ 0.2
7,KEGR,≤ 0.2
8,LARS,≤ 0.2
9,DVWE,≤ 0.2
10,ATGP,≤ 0.2
11,YWSG,≤ 0.2
12,FYAT,≤ 0.2
13,RAQT,0.894
14,HDCY,≤ 0.2
15,CDHV,≤ 0.2
16,HDPQ,≤ 0.2
17,CPWT,≤ 0.2
18,GKLH,≤ 0.2
19,RAVW,0.203
20,GDRS,≤ 0.2
21,TRNW,≤ 0.2
